# Reference: PubChem BioAssay AID463173 (ICCB-Longwood Screening Facility, Harvard Medical School, 2010)
# Screen size: about 52,000 compounds; about 1,700 (3.3%) were called active. Cut-off read from the data, not from the text of the source: active = survival mostly below about 52% (no sharp cut-off); inactive = mostly above about 56%. The list shows a part of the results.
# Tested on: Wild type
# Assay: growth inhibition of S. aureus wild type versus tarO mutant, primary screen, teichoic acid synthesis inhibitors, RN4220, OD600 (AID 463173)
# Conditions: S. aureus RN4220 wild type/DeltatarO growth, OD600, 18 h, stronger effect = lower value, screened at 18.75 µg/mL (by protocol)
row,Structure (SMILES),survival
1,CCn1cc2nc(SCC(=O)Nc3ccc(C)cc3)n(Cc3ccc(C)cc3)c(=O)c2n1,inactive: 68%
2,O=C(NCc1ccccc1F)c1sc2ncccc2c1-n1cccc1,inactive: 88%
3,O=S(=O)(NCCS(=O)(=O)N1CCN(c2cccc(Cl)c2)CC1)c1ccc(F)cc1,inactive: 75%
4,CCOc1ccc(C2=NC(c3cccs3)=Nc3ccc(CC)cc3N2)cc1OCC,inactive: 77%
5,COC(=O)CN1C(=O)C(C)(C)c2cc(S(=O)(=O)Nc3ccc(Br)cc3F)ccc21,inactive: 57%
6,Cc1[nH]c2ccc(Br)cc2c1CCNC(=O)c1cc2ccccc2oc1=O,inactive: 64%
7,CCN(CC)c1ccc(NC(=O)CN2CCN(c3ccccc3F)CC2)cc1,inactive: 84%
8,CC(=O)N1CCCc2cc(S(=O)(=O)N3CCCC(C(=O)Nc4ccc(C)cc4C)C3)ccc21 (configuration not stated),inactive: 83%
9,COc1ccc(-n2nc3cc(C)c(NC(=O)c4ccc(-c5ccc(Br)cc5)o4)cc3n2)cc1,inactive: 70%
10,COc1cc(OC)cc(C(=O)Nc2cc3c(cc2N2CCOCC2)n(C)c(=O)n3C)c1,inactive: 80%
11,Cc1cccc(NC(=O)CN2C(=O)C(c3ccccc3)=NC23CCC(C)CC3)c1 (configuration not stated),inactive: 86%
12,CC(=O)c1cccc(-n2c(=O)c3c4c(sc3n(Cc3cccc(C)c3)c2=O)CN(C(C)=O)CC4)c1,inactive: 86%
13,Cc1cc(C)n(CCc2nc3c4ccccc4nc(N4CCN(c5cccc(C)c5C)CC4)n3n2)n1,inactive: 74%
14,CCOC(=O)c1cccc(NC(=O)CCS(=O)(=O)c2ccc3c(c2)CC(=O)N3C)c1,inactive: 135%
15,Cc1ccc(S(=O)(=O)C2(C(=O)Nc3ccc(Cl)c(C(F)(F)F)c3)CC2)cc1,active: 41%
16,Cc1ccc(/C=C(\C#N)c2nc(-c3ccc(-c4ccccc4)cc3)cs2)cc1,inactive: 83%
17,COc1ccc(OC)c(C(=O)CC2(O)C(=O)N(Cc3ccccc3C)c3ccccc32)c1 (configuration not stated),inactive: 118%
18,CCOc1ccccc1CNC(=O)CCc1c(C)nn(-c2ccc(N3CCCC3)nn2)c1C,inactive: 71%
19,CCN1C=CC2=C(C#N)C(N)C(C#N)(C#N)C(c3cccs3)C2C1 (configuration not stated),inactive: 99%
20,COc1ccccc1CNC(=O)Cn1c(=O)nc(-c2ccccc2F)c2cc(Cl)ccc21,inactive: 73%
21,COC(=O)c1ccc(Cl)cc1NC(=O)NCCc1c(C)nn(C)c1C,inactive: 55%
22,Cc1c(C(=O)N2CCOCC2)oc2c1-c1nn(CC(=O)NCc3cccc(F)c3)cc1CC2,inactive: 108%

row,Structure (SMILES),survival
1,CC(C)c1ccc(NC(=O)Cn2c(=O)n(CC3CCC(C(=O)NCCc4ccccc4)CC3)c(=O)c3ccccc32)cc1 (configuration not stated),inactive: 71%
2,CC(C)(C)C1CCc2c(sc(NC(=O)Cn3nnc(-c4ccccc4Cl)n3)c2C#N)C1 (configuration not stated),inactive: 78%
3,COc1ccc(-n2ccnc2SCC(=O)Nc2ccc3c(c2)OCO3)cc1,inactive: 119%
4,Cc1ccc(CNc2ccc(-c3nc(-c4ccncc4)no3)cc2[N+](=O)[O-])cc1,inactive: 87%
5,Cc1cccc(N2CCN(C(=O)CS(=O)(=O)c3cccc4nsnc34)CC2)c1C,inactive: 153%
6,CCOC(=O)c1c(C)[nH]c(C)c1S(=O)(=O)N1CCC(C(=O)Nc2cc(C)ccn2)CC1,inactive: 60%
7,Cc1ccc(Cl)cc1N1CCN(C(=O)C2CCC(CNS(=O)(=O)c3cccs3)CC2)CC1 (configuration not stated),inactive: 60%
8,Cc1ccc2nc(COc3ccccc3NC(=O)COc3ccc(F)cc3)cc(=O)n2c1,inactive: 124%
9,CCc1ccccc1NS(=O)(=O)c1ccc2[nH]cc(C(=O)N(CC(C)C)CC(C)C)c(=O)c2c1,inactive: 71%
10,Cc1ccc(-c2nc(S(=O)(=O)c3ccccc3)c(N3CCN(c4ccccc4)CC3)o2)cc1,inactive: 117%
11,CCc1ccccc1N(CC)C(=O)c1c(C)oc2ncn(C)c(=O)c12,inactive: 71%
12,COc1ccccc1N1CCN(C(=O)c2cc(CC(C)C)on2)CC1,inactive: 82%
13,O=C(Nc1ccc(S(=O)(=O)N2CCOCC2)cc1)c1cnccn1,inactive: 104%
14,CCCn1c(=O)/c(=C2/C=Cc3ccccc3N2C)s/c1=C1\SC(=S)NC1=O,inactive: 105%
15,COc1ccc(-c2nc(SCC(=O)Nc3ccc4c(c3)OCCO4)c(-c3ccc(F)cc3)[nH]2)cc1,inactive: 90%
16,Cc1cccc(C(C)C)c1NC(=O)Cn1c(=O)oc2cc(S(=O)(=O)N3CCCC3)ccc21,inactive: 84%
17,O=C(Nc1ccccc1C(=O)OCc1cc(=O)n2c3c(sc2n1)CCCC3)c1ccc(F)cc1,inactive: 124%
18,C=CCc1c(C)[nH]c2ccccc2c1=O,inactive: 102%
19,COc1ccc(NC(=O)C2CCN(S(=O)(=O)c3ccc4c(c3)CCCC(=O)N4)CC2)cc1OC,inactive: 76%
20,CCc1ccc2nc(N(CCN(CC)CC)C(=O)c3cccs3)sc2c1,inactive: 75%
21,CCCc1noc2c1C1=NNC(=O)C1C(C)(C)C2 (configuration not stated),inactive: 104%
22,COc1cccc(C(=O)Nc2nc3nc(-c4ccccc4)cc(=O)n3[nH]2)c1,inactive: 89%

row,Structure (SMILES),survival
1,C=CCNc1nc(N)c(C(=C(C#N)C#N)c2ccccc2)s1,inactive: 113%
2,CCOC(=O)c1c(-c2ccc(C)cc2)csc1NC(=O)c1cc(=O)c2cc(C)ccc2o1,inactive: 80%
3,O=C(Cn1c(=O)nc(-c2ccccc2)c2ccccc21)NCCc1ccccc1,inactive: 71%
4,O=C1c2oc3ccccc3c(=O)c2C(c2cccc(O)c2)N1c1nncs1 (configuration not stated),inactive: 89%
5,COc1cccc(CNC(=O)C2=C(C)C(=O)OC23CCN(C(C)=O)CC3)c1OC,inactive: 74%
6,CC(C)=C1C2C=CC1C1C(=O)N(CCO)C(=O)C21 (configuration not stated),inactive: 101%
7,COc1ccc(-c2oc3ncn4nc(COc5cccc(C)c5C)nc4c3c2-c2ccc(OC)cc2)cc1,inactive: 77%
8,COc1cc(Nc2nc(SCc3ccc(Cl)cc3)nc3ccccc23)cc(OC)c1,inactive: 81%
9,CC(=O)c1ccc(NC(=O)CN2C(=O)CN(C)C(=O)c3ccccc32)cc1,inactive: 87%
10,Cc1cccc(CNC(=O)c2ccc(N3Cc4ccccc4Oc4ncccc43)s2)c1,inactive: 69%
11,COc1cccc(C(=O)N2CCC(C(=O)Nc3cccc(Cl)c3)CC2)c1,inactive: 78%
12,CN(C)c1cccc(C(=O)N2CCC(c3c[nH]c4ccccc34)(c3c[nH]c4ccccc34)CC2)c1,inactive: 67%
13,O=C(O)C1=NN(c2ccccc2)C(=O)C1,inactive: 113%
14,CCC(C(=O)NCc1cc(OC)ccc1OC)n1nc(C)c2sc3ccccc3c2c1=O (configuration not stated),inactive: 87%
15,COc1cc(C(=O)Nc2ccc(NC(=O)c3ccc(C(C)(C)C)cc3)cc2)cc(OC)c1OC,inactive: 154%
16,O=C(COCc1cc(-c2cccs2)on1)N1CCN(c2ccccc2)CC1,inactive: 68%
17,CCC1Oc2ccc(C)cc2N(CC(=O)N(Cc2ccc3c(c2)OCO3)CC2CCCO2)C1=O (configuration not stated),inactive: 107%
18,CC(C)c1ccc(N2C(=O)CSC23C(=O)N(Cc2cccc(F)c2)c2ccccc23)cc1 (configuration not stated),inactive: 83%
19,COc1ccccc1C(=O)Nc1ccc2nc(SCCOc3ccccc3C)sc2c1,inactive: 93%
20,C=C(C)C1Cc2cc(/C=C/C(=O)O)c(O)cc2O1 (configuration not stated),inactive: 83%
21,Fc1ccc(NCc2nnc3n2CCCCC3)cc1Cl,inactive: 66%
22,COc1ccc(OC)c(CNC(=O)C2CCCN(c3ncnc4onc(-c5ccc(F)cc5)c34)C2)c1 (configuration not stated),inactive: 73%

row,Structure (SMILES),survival
1,CCC(=O)c1ccc(N2CCCC2)c(F)c1,inactive: 110%
2,O=C(Cn1c(=O)oc2cc(S(=O)(=O)NCc3ccccc3)ccc21)Nc1cccc(F)c1,inactive: 93%
3,COC(=O)c1ccc(C2Nc3c(C)cccc3-c3cc(C)nn32)cc1 (configuration not stated),active: -4%
4,CC(Oc1ccc(/C=C(/C#N)C(=O)N2CCOCC2)cc1)C(=O)O (configuration not stated),inactive: 104%
5,COc1ccccc1CNc1nc2c(S(=O)(=O)c3ccc(C)c(C)c3)nnn2c2ccc(Cl)cc12,inactive: 98%
6,Cc1ccc(C(C(=O)NCC2CCCO2)N(Cc2ccc3c(c2)OCO3)C(=O)c2ccc(-c3ccccc3)[nH]2)o1 (configuration not stated),inactive: 81%
7,COc1ccc(NC(=O)C(NS(=O)(=O)c2cccc3nsnc23)C(C)C)cc1 (configuration not stated),inactive: 82%
8,NC(=O)CC(c1ccccc1)c1ccc2c(c1)OCO2 (configuration not stated),inactive: 117%
9,CCCC(CCC)C(=O)Nc1ccc(NC(=O)c2ccco2)cc1,inactive: 110%
10,CCOC(=O)c1c(NC(=O)c2cc(-c3ccc(Br)cc3)on2)sc(C(C)=O)c1C,inactive: 105%
11,O=C(c1ccc(F)cc1)c1cn(Cc2ccccc2)c2cc3c(cc2c1=O)OCO3,inactive: 73%
12,Cc1oc(-c2ccc(C(=O)Nc3ccc(F)cc3)cc2)nc1COc1ccccc1,inactive: 93%
13,COc1ccc(C2=CC(c3cc(Br)ccc3F)n3c(nc4ccccc43)N2)cc1 (configuration not stated),inactive: 82%
14,O=C(Nc1c(C(=O)N2CCN(c3ccccc3F)CC2)oc2ccccc12)c1cccc(F)c1,inactive: 83%
15,Cn1nnc(NC(=O)COc2ccccc2)n1,inactive: 99%
16,O=C(NCC(=O)N1CCCCC1)c1ccccc1,inactive: 100%
17,CC1CCCN(c2cc3c(cc2F)c(=O)c(S(=O)(=O)c2cccc(Cl)c2)cn3Cc2ccccc2)C1 (configuration not stated),inactive: 63%
18,O=C(COc1ccccc1Cl)Nc1ccc(-c2nc3ccccc3s2)cc1,inactive: 81%
19,O=C(NCCCc1ccccc1)Nc1c[nH]c2ccccc2c1=O,inactive: 108%
20,COc1ccc(CCNC(=O)C(=O)NCC(c2ccco2)S(=O)(=O)c2ccc(C)cc2)cc1 (configuration not stated),inactive: 159%
21,CC(C)NC(=O)c1ccc(Cn2c(SCc3ccc(F)cc3)nc3cccnc32)cc1,inactive: 65%
